In patent US7592316B2, “Peptides as NS3-serine protease inhibitors of hepatitis C virus” (Schering Corporation, priority 2000, dated 2009):
*1 amine or outer side, *2 acyl side, *3 side chain or, on linkers, in order; H or OH if unused. Where a SMILES comes first, the peptide text is derived from it. [ ]: non-standard residue; d: D form. The star is where a group is joined. ξ: configuration not given here. Pro(3R,4S-CMe2) = CC1(C)[C@@H]2[C@@H](C(=O)O)NC[C@@H]21; Pro(trans-3-OtBu) = CC(C)(C)O[C@H]1CCN[C@@H]1C(=O)O; X83 = C[C@H]1C[C@@H]1[C@H](N[*:1])C(=O)C(=O)[*:2]; X19 = CCC[C@@H](N[*:1])C(=O)C(=O)[*:2]; Isobutyloxycarbonyl = CC(C)COC(=O)*; Chg = N[C@H](C(=O)O)C1CCCCC1; Tle = CC(C)(C)[C@H](N)C(=O)O; ξPhg = NC(C(=O)O)c1ccccc1; Boc = CC(C)(C)OC(=O)*

biological target: HCV NS3/NS4A protease (strain 1a) (Hepatitis C virus genotype 1a, UniProt P27958); experiment: biochemical; conditions: Table 4; HCV NS3/NS4A protease, spectrophotometric assay, 30° C., pH 6.5; read-out: Ki* Range

Row | Compound | Ki [nM]
1 | CC(C)COC(=O)N[C@H](C(=O)N1C[C@H]2[C@@H]([C@H]1C(=O)N[C@H](C(=O)C(=O)NCC(=O)NC(C(=O)N(C)C)c1ccccc1)[C@H]1C[C@@H]1C)C2(C)C)C1CCCCC1 (stereo partly drawn) (Isobutyloxycarbonyl-[Chg][Pro(3R,4S-CMe2)][X83]G[ξPhg]-NMe2) | 1 to 100

same assay, conditions: Table 5; HCV NS3/NS4A protease, 30° C., pH 6.5; read-out: Ki* Range

Row | Ki [nM] | Compound
2 | > 1000 | CCCC(NC(=O)[C@@H]1[C@@H]2[C@H](CN1C(=O)[C@@H](NC(=O)OC(C)(C)C)C(C)(C)C)C2(C)C)C(=O)C(=O)NCCS(C)(=O)=O (some centres unmarked)
3 | 1 to 100 | C#CCCNC(=O)C(=O)C(CCC=C)NC(=O)[C@@H]1[C@@H]2[C@H](CN1C(=O)[C@@H](NC(=O)NC13CC4CC(CC(C4)C1)C3)C1CCCCC1)C2(C)C (some centres unmarked)
4 | 1 to 100 | C=CCC[C@H](NC(=O)[C@@H]1[C@H]2[C@@H](CN1C(=O)C(NC(=O)OC(C)(C)C)C1Cc3ccccc3C1)C2(Cl)Cl)C(=O)C(=O)NCCC(=O)NC(C)(C)C (some centres unmarked)
5 | 101 to 1000 | COCC(NC(=O)[C@@H]1[C@@H]2[C@H](CN1C(=O)[C@@H](NC(=O)OC(C)(C)C)C1Cc3ccccc3C1)C2(C)C)C(=O)C(=O)NCCC(=O)OC(C)(C)C (some centres unmarked)

same assay, conditions: Table 5; HCV NS3/NS4A protease, spectrophotometric assay, 30° C., pH 6.5; read-out: Ki* Range

Row | Compound | Ki [nM]
6 | CN(C)C(=O)[C@@H](NC(=O)CNC(=O)C(=O)[C@@H](CC1CCC1)NC(=O)[C@@H]1[C@H]2OC(C)(C)O[C@H]2CN1C(=O)[C@@H](NC(=O)OC(C)(C)C)C(C)(C)C)c1ccccc1 | 1 to 100
7 | C=CCNC(=O)C(=O)C(CCC)NC(=O)C1[C@H]2[C@@H](CN1C(=O)C(NC(=O)OCC(C)C)C1CCC(F)(F)CC1)C2(C)C (some centres unmarked) | 101 to 1000
8 | CCCC(NC(=O)[C@@H]1[C@@H]2[C@H](CN1C(=O)[C@@H](NC(=O)OC(C)(C)C)C(C)(C)C)C2(C)C)C(=O)C(=O)NOC (some centres unmarked) | > 1000
9 | CCC[C@@H](NC(=O)[C@@H]1[C@@H](OC(C)(C)C)CCN1C(=O)[C@@H](NC(=O)OC(C)(C)C)C(C)(C)C)C(=O)C(=O)NCC(=O)NC(C(=O)N(C)C)c1ccccc1 (stereo partly drawn) (Boc-[Tle][Pro(trans-3-OtBu)][X19]G[ξPhg]-NMe2) | > 1000
10 | NC(=O)C(=O)C(CC1CC1)NC(=O)[C@@H]1[C@@H]2[C@H](CN1C(=O)[C@@H](NC(=O)NC1CCCCC1)C1CCCCC1)C2(Cl)Cl (some centres unmarked) | 1 to 100

Results, then the molecule that gave them:

Row | Ki [nM] | Compound
11 | 1 to 100 | C=CCCNC(=O)C(=O)C(CCC=C)NC(=O)[C@@H]1[C@@H]2[C@H](CN1C(=O)[C@@H](NC(=O)OC(C)(C)C)C1Cc3ccccc3C1)C2(C)C (some centres unmarked)
12 | > 1000 | CCCC(NC(=O)C1C2CCC(C2)N1C(=O)[C@@H](NC(=O)OC(C)(C)C)C1CCCCC1)C(=O)C(=O)NCC(=O)OCc1ccccc1 (some centres unmarked)
13 | > 1000 | CCCC(NC(=O)[C@@H]1CC(C)(C)CN1C(=O)[C@@H](NC(=O)OC(C)(C)C)C(C)(C)C)C(=O)C(=O)NCC (some centres unmarked)
14 | > 1000 | CCC[C@@H](NC(=O)C1C2CCC(C2)N1C(=O)[C@H](NC(=O)OC(C)(C)C)C(C)(C)C)C(=O)C(=O)OC(C)(C)C (some centres unmarked)
15 | > 1000 | C=CCNC(=O)C(=O)C(CCC)NC(=O)C1CCCN1C(=O)C(NC(=O)OC(C)(C)C)C(C)(C)C (centres unmarked)
16 | 1 to 100 | CC(C)(C)OC(=O)N[C@H](C(=O)N1C[C@@H]2[C@H]([C@H]1C(=O)NC(CC1CCC1)C(=O)C(N)=O)C2(C)C)C1CCC2(CC1)CC2 (some centres unmarked)
17 | 101 to 1000 | CC(C)(C)[C@H](NC(=O)OC1CC1)C(=O)N1C[C@H]2[C@@H]([C@H]1C(=O)NC(CC1CC1)C(=O)C(N)=O)C2(C)C (some centres unmarked)

same assay, conditions: Table 6; HCV NS3/NS4A protease, 30° C., pH 6.5; read-out: Ki*

Row | Compound | Ki [nM]
18 | CN(C)C(=O)CCNC(=O)CNC(=O)C(=O)C(CC1CCC1)NC(=O)[C@@H]1[C@@H]2[C@H](CN1C(=O)[C@@H](NC(=O)OC(C)(C)C)C1CCCCC1)C2(C)C (some centres unmarked) | 1 to 100
19 | CC(C)(C)NC(=O)N[C@H](C(=O)N1CC(CNC(=O)OCc2ccccc2)C[C@H]1C(=O)NC(CC1CCC1)C(=O)C(N)=O)C(C)(C)C (some centres unmarked) | 101 to 1000

Second part, the molecule after the results:

Row | Ki [nM] | Compound
20 | 1 to 100 | C=CCCC(NC(=O)[C@@H]1[C@@H]2[C@H](CN1C(=O)[C@@H](NC(=O)NC(C)(C)C)C(C)(C)C)C2(C)C)C(=O)C(=O)NCC(=O)NCc1ccccc1 (some centres unmarked)
21 | 1 to 100 | CC(C)(C)NC(=O)N[C@H](C(=O)N1C[C@H]2[C@@H]([C@H]1C(=O)NC(CC1CCC1)C(=O)C(=O)NCC(=O)OC(C)(C)c1ccccc1)C2(C)C)C(C)(C)C (some centres unmarked)
22 | 1 to 100 | Cc1ccc(S(=O)(=O)CNC(=O)C(=O)C(CC2CC2)NC(=O)[C@@H]2[C@@H]3[C@H](CN2C(=O)[C@@H](NC(=O)NC(C)(C)C)C(C)(C)C)C3(C)C)cc1 (some centres unmarked)
23 | 101 to 1000 | CC(C)(C)OC(=O)N[C@H](C(=O)N1C[C@H]2[C@@H]([C@H]1C(=O)NC(CC1CCC1)C(=O)C(=O)NCC(=O)OC(C)(C)c1ccccc1)C2(Cl)Cl)C(C)(C)C (some centres unmarked)
